# According to paper PMC4336329 (PLoS ONE, 2015):
# Screen size: about 310,000 compounds; about 14,000 (4.5%) showed an effect of 50% or more. Effects have a minus sign here. The list shows a part of the results.
# Molecular target: human ether-à-go-go-related gene (hERG) potassium channel (human, UniProt Q12809)
# Experiment: primary screen, population patch clamp on CHO cells stably expressing hERG
# 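Further: peak tail current of the secondary pulse compared with the same well before compound.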
# Chain of human ether-à-go-go-related gene (hERG) potassium channel (Q12809 whole entry, looked up): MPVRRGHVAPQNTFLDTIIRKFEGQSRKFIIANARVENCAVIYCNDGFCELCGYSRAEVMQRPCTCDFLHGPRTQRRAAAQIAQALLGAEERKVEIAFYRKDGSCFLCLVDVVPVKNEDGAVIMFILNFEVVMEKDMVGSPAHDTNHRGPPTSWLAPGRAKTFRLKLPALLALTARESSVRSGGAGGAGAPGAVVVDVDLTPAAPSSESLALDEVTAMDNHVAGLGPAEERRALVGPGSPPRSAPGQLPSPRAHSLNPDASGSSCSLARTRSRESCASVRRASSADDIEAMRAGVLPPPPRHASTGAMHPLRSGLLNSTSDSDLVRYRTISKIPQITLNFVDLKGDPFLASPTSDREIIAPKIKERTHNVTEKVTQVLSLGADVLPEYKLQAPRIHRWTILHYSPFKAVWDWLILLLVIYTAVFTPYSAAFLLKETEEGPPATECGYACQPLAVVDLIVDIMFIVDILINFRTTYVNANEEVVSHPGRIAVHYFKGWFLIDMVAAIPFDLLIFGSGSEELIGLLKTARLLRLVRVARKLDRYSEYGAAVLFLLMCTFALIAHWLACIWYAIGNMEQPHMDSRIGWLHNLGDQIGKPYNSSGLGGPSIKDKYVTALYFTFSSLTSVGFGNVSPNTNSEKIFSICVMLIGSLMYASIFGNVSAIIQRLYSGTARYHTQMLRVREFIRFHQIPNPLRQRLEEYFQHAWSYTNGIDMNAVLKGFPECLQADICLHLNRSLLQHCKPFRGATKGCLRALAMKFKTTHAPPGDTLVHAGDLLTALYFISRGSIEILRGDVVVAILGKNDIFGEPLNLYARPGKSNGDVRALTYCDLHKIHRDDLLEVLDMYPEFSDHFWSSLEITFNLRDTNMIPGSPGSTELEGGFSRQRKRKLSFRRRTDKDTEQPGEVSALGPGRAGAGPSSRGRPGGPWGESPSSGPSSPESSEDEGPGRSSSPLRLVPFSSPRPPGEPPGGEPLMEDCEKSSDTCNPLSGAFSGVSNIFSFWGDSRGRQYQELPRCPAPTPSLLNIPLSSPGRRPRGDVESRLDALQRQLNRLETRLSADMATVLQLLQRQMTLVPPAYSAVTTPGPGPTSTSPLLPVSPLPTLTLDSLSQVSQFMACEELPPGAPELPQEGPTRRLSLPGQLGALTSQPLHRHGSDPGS
row,Structure (SMILES),"hERG current change (%, negative = inhibition) at 10uM [%]"
1,COc1ccc(/C=N/OC/C(O)=C(\C#N)c2nc3ccccc3[nH]2)cc1,-15.4
2,COc1ccccc1C1C2=C(CCCC2=O)N(CC(=O)O)C2=C1C(=O)CCC2,15.9
3,CCOC(=O)c1c(C)oc2ccc(NS(=O)(=O)c3cccs3)cc12,6.47
4,Cc1cc2c(ncn2Cc2ccccc2)c(N)c1C,5.6
5,CC(=O)n1c(Cl)c(NC(=O)CCl)c2ccccc21,-8.24
6,O=C(O)c1cc(=O)c2ccccc2[nH]1,8.86
7,COc1ccc(N2C(=O)CCC(C(=O)Nc3ccccn3)C2c2ccc(OC)c(OC)c2)cc1 (centres unmarked),8.15
8,COC(=O)C1=C(c2ccc(F)cc2OCc2ccccc2)C[C@@H]2CC[C@H]1N2C(=O)N1CCC(C)CC1,-3.4
9,CN1CCN(c2ccc(S(=O)(=O)N3CCOCC3)cc2NC(=O)Cc2ccccc2F)CC1,-26.4
10,CCNC(=O)COC(=O)Cc1ccc(Cl)cc1Cl,10.6
11,COc1ccccc1OCCSc1nnc(C)n1-c1ccccc1,-10.5
12,Cc1cc(NC(=O)CSc2nc3ccccc3s2)no1,13.2
13,COc1ccc(NC(=S)N2CCN(Cc3cccc(F)c3)CC2)c(OC)c1,-6.36
14,COc1ccccc1CC(=O)NC1CC1,13.6
15,CC1=C(C(=O)OCc2ccccc2)C(c2cccnc2)n2ncnc2N1 (centres unmarked),9
16,CCCCSc1nnc(-c2ccc(NC(C)=O)cc2)n1C,0.665
17,COc1cc(CNCCc2ccc3c(c2)OCO3)cc(OC)c1OC.O=C(O)C(=O)O,-14.2
18,C=C1CCN([C@@H](CC(C)C)C(=O)NN2CCOCC2)S(=O)(=O)c2ccccc21,9.45
19,COc1ccc(Cl)cc1NC(=O)CSc1nnc(C2CC2)n1C,-2.44
20,CN(C)CCn1c2c(c(SCC(=O)Nc3ccc4c(c3)OCCO4)nc1=O)CCCC2,-14.8
21,COc1ccc(-n2ccnc2SCC(=O)Nc2cc(C)on2)cc1,6.74
22,CCc1ccc(N2CC(C(=O)OCc3csc(CC(=O)Nc4ccccc4C)n3)CC2=O)cc1 (centres unmarked),10.6

row,Structure (SMILES),"hERG current change (%, negative = inhibition) at 10uM [%]"
1,CC(=O)c1cccc(OCC(O)CNCCc2ccc(Cl)cc2)c1 (centres unmarked),-49
2,COc1ccc(/C=C2\SC(=S)N(CC(=O)NC3CCS(=O)(=O)C3)C2=O)cc1 (centres unmarked),11.9
3,CCn1c(C(=O)NCc2ccccn2)cc2sccc21,0.0676
4,COc1ccc(CNC(=O)CCC(=O)n2ncc3cc(C)ccc32)cc1,-1.26
5,CCOC(=O)CC1C(=O)NCCN1S(=O)(=O)c1ccc(C)cc1 (centres unmarked),14.2
6,O=C(CSCc1ccccc1)Nc1ccc2c(c1)C(=O)NC2=O,0.0605
7,Cc1ccc(C(=O)Nc2ccc(N3CCOCC3)cc2)cc1,7.36
8,COc1ccc(CNC(=O)C2CC(=O)N(c3ccc(OCC(=O)N4C(C)CCCC4C)cc3)C2)cc1 (centres unmarked),-29.4
9,C/C(CC(=O)NCC(C)C)=N\NC(=O)COc1cc(C)c(Br)cc1Br,-31.6
10,CCOc1ccc(-c2cc(C)n3nc(C(N)=O)cc3n2)cc1,-11.1
11,CCOC(=O)C1=C(c2ccccc2)OC(N)=C(C#N)C1c1ccc(Cl)s1 (centres unmarked),3.47
12,COc1ccccc1Oc1ccc(NC(=O)c2ccccc2)cc1,-23.1
13,Cc1cc([N+](=O)[O-])nn1CCCC(=O)N1CCN(c2ccccc2)CC1,-21.4
14,Cc1cc(C)nc(Sc2nc(C)nc3c2oc2ccccc23)n1,-1.57
15,CCOC(=O)Cc1nnc(NC(=O)c2ccccc2OC)s1,-4.76
16,COCCOC(=O)c1c(C)oc2ccc(OCc3ccccc3)cc12,-5.55
17,O=C(COC(=O)c1ccccc1SCC(=O)N1CCCC1)NC1CCCCC1,-5.12
18,Cc1ccc(CS(=O)Cc2ccc(C(=O)NC3CCCCC3)o2)cc1 (centres unmarked),2.31
19,O=C(COC(=O)[C@@H]1CC(O)CN1S(=O)(=O)c1ccc([N+](=O)[O-])cc1)NC12CC3CC(CC(C3)C1)C2 (some centres unmarked),-35.2
20,CC(C)CC(NC(=O)c1ccccc1)C(=O)OCC(=O)Nc1ccc(Br)cn1 (centres unmarked),-1.01
21,CCOc1ccccc1CNc1nc2nc3c(c(=O)n2[nH]1)CCC3,19.6
22,CCOC(=O)c1ccc(NC(=O)c2nc[nH]c2C(=O)NC2CCN(C(=O)OC(C)(C)C)CC2)cc1,4.44
